Hit rate of the full screen: of about 150,000 compounds, about 540 (0.36%) showed an effect of 50% or more. This is one part of the list.
system: Plasmodium falciparum; assay: Primary screen in NF54 nanoGlo assay, in single point, at 2uM, 72h; a lower Z score goes with more inhibition; assay type: functional, Erythrocyte; settings: timepoint 72 hour

SMILES	% Inhibition	Z score
Cc1oc(-c2ccno2)cc1S(=O)(=O)Nc1ccccc1F	-10%	1.16
O=C(c1cccc(S(=O)(=O)N2CCCCC2)c1)N1CCc2ccccc2C1	4%	-0.53
O=C(NCc1ccc(Cl)cc1Cl)[C@H]1CCCN(C(=O)c2cccs2)C1	8%	-1.53
CC(C)C[C@H](NC(=O)c1cccc(F)c1)C(=O)N(C)C	-6%	1.09
Cc1ccnc(NC(=O)c2ccc(Oc3ccc(F)cc3Br)nc2)c1	4%	-0.48
C[C@@H](CNC(=O)c1cncc(-c2ccc3c(c2)CCO3)c1)Cn1ccnc1	1%	-0.06
COc1ccccc1OS(=O)(=O)[C@H]1CCCN(C(=O)C2CCCC2)C1	10%	-1.3
O=C(Cn1c(=O)c(N2CCCCC2)nc2ccccc21)Nc1ccccc1	-7%	0.7
O[C@H]1CN[C@H](c2nc(-c3ccc4c(c3)OCO4)no2)C1	-6%	0.94
O=C(NCC1CCN(Cc2ccco2)CC1)c1ccc(Cl)cc1Cl	-7%	1.13
CCOc1ccc(-c2cc(C(=O)NC[C@H]3CCCO3)cc3cc(OC)c(OC)cc23)cc1	10%	-2
O=C(c1ccc2cccc(Cl)c2n1)N1CCC2(CCCC2)C1	-2%	0.3
CC(=O)Nc1cc(-c2ccoc2)nn1-c1ccccc1	-14%	2.22
CC(C)CN(C(=O)[C@@H]1COCCO1)C1CC1	10%	-1.2
O=C(COc1ccc(C(=O)O)cc1Br)NC1CCCC1	-3%	0.56
O=C(OC1CCCCC1)c1ccc2c(c1)C(=O)N(c1cc(Cl)ccc1Cl)C2=O	-4%	0.54
CCN(CCC(F)(F)F)C(=O)c1ccc(C)c(F)c1	-4%	0.42
O=C(CCc1nccs1)N1CC2(CCOC2)C1	-8%	1.4
C=C1C(C(=O)Nc2ccc(OCc3ccccc3)cc2)C1C(=O)Nc1ccc(OCc2ccccc2)cc1 (stereo unspecified)	1%	-0.1
CC1CCN(S(=O)(=O)c2ccc3c(ccc(=O)n3CC(=O)N3CCCC3)c2)CC1	-5%	0.65
Cc1ncc(CN2CCN(Cc3cnc(C)nc3)[C@@H](CO)C2)cn1	-7%	0.88
Cc1ccoc1-c1nnc(CNC(C)C(C)n2cccn2)o1 (stereo unspecified)	-5%	0.62

SMILES	% Inhibition	Z score
Cc1noc(C)c1CC(=O)NS(=O)(=O)N1CCc2ccccc2C1	4%	-0.68
Cc1c(Cl)cccc1NC(=O)CCNc1ncnc2onc(C)c12	9%	-1.01
CCc1nn(-c2ccc(OC)cc2)c(Oc2ccccc2C)c1CCC(=O)NCc1cccnc1	19%	-2.1
C[C@@H](CN1CCCC1=O)NC(=O)Nc1ccncc1F	-5%	0.69
COCc1cc(-c2nc3c([nH]2)CCCNC3=O)n[nH]1	-8%	1.54
CCn1cc(CNC(=O)C2NCCC3CCCCC32)nn1 (stereo unspecified)	-3%	0.54
NC(=O)c1c(NC(=O)Cn2nnc3ccccc32)sc2c1CCC2	-14%	1.22
CCOc1cc(N2CC3(CC(OC)(OC)C3)[C@@H]2C(C)C)ncn1	-10%	1.23
CNC(=O)CCC(C)(C)NC(=O)c1ccc(CCC(C)(C)O)cc1	-13%	1.88
COc1ccc(NC(=O)[C@H](C2CCCC2)N2CCN(C(=O)C(C)(C)C)CC2)cc1	1%	-0.21
CCCc1noc(CN2N=C(C(=O)N3CCC(C)CC3)S(=O)(=O)c3ccc(C)cc32)n1	2%	-0.26
COc1nc2c(cc1CNC(=O)CCc1ccco1)C(=O)N(C1CCCC1)C2	-2%	0.26
Cc1nc2c(n1CCO)CC[C@H](NC(=O)c1cnc3n1CCCC3)C2	-11%	1.17
O=C1c2nccnc2C(=O)N1c1cccc2ccccc12	-12%	1.82
Clc1ccc(NC[C@H]2CCCN2)c(Cl)c1	1%	-0.1
Cc1nc(O)nc(C)c1CCC(=O)N1CC[C@H]1c1ccc(F)cc1	-1%	0.23
CCN(CC)Cc1cn2ccccc2c1C#N	-12%	1.72
O=c1scc(C(F)(F)F)n1Cc1sc2ccccc2c1Cl	2%	-0.34
C[C@H](NC(=O)c1cc(O)ccc1C(F)(F)F)C(=O)N(C)C	-7%	0.57
CCOc1ccccc1CN1CCC(F)(C(=O)NC2CC2)CC1	-3%	0.38
CCCNC(=O)CCc1nc(N2CCCCC2)c2c(CC)noc2n1	-12%	1.91

From ChEMBL document CHEMBL4888484, “Replenishing the malaria drug discovery pipeline: Screening and hit evaluation of the MMV Hit Generation Library 1 (HGL1) against asexual blood stage Plasmodium falciparum ,using a nano luciferase reporter read-out” (2022)
